Source: PMC10526779
Residue numbers refer to the chain shown, from its start. Numbers in names are those of the source. Results are given in words; binding and its absence hold for the method and conditions named. In cells and extracts the contact can be indirect. Some results given as binding are weak or reduced against the parent protein; the word gives no strength. Where a sequence is shown, tags or fusion partners need not be part of it.

B1: 35S-methionine-labeled wild-type Centrobin, full length (protein, UniProt Q8N137-1 1-903)
chain: MATSADSPSSPLGAEDLLSDSSEPPGLNQVSSEVTSQLYASLRLSRQAEATARAQLYLPSTSPPHEGLDGFAQELSRSLSVGLEKNLKKKDGSKHIFEMESVRGQLQTMLQTSRDTAYRDPLIPGAGSERREEDSFDSDSTATLLNTRPLQDLSPSSSAQALEELFPRYTSLRPGPPLNPPDFQGLRDALDSEHTRRKHCERHIQSLQTRVLELQQQLAVAVAADRKKDTMIEQLDKTLARVVEGWNRHEAERTEVLRGLQEEHQAAELTRSKQQETVTRLEQSLSEAMEALNREQESARLQQRERETLEEERQALTLRLEAEQQRCCVLQEERDAARAGQLSEHRELETLRAALEEERQTWAQQEHQLKEHYQALQEESQAQLEREKEKSQREAQAAWETQHQLALVQSEVRRLEGELDTARRERDALQLEMSLVQARYESQRIQLESELAVQLEQRVTERLAQAQESSLRQAASLREHHRKQLQDLSGQHQQELASQLAQFKVEMAEREERQQQVAEDYELRLAREQARVCELQSGNQQLEEQRVELVERLQAMLQAHWDEANQLLSTTLPPPNPPAPPAGPSSPGPQEPEKEERRVWTMPPMAVALKPVLQQSREARDELPGAPPVLCSSSSDLSLLLGPSFQSQHSFQPLEPKPDLTSSTAGAFSALGAFHPDHRAERPFPEEDPGPDGEGLLKQGLPPAQLEGLKNFLHQLLETVPQNNENPSVDLLPPKSGPLTVPSWEEAPQVPRIPPPVHKTKVPLAMASSLFRVPEPPSSHSQGSGPSSGSPERGGDGLTFPRQLMEVSQLLRLYQARGWGALPAEDLLLYLKRLEHSGTDGRGDNVPRRNTDSRLGEIPRKEIPSQAVPRRLATAPKTEKPPARKKSGHPAPSSMRSRGGVWR
modifications: 35S-methionine-labeled
B2: Flag-CNTRB^180-903aa-S781A (domain or fragment, UniProt Q8N137-1 180-903)
chain: PPDFQGLRDALDSEHTRRKHCERHIQSLQTRVLELQQQLAVAVAADRKKDTMIEQLDKTLARVVEGWNRHEAERTEVLRGLQEEHQAAELTRSKQQETVTRLEQSLSEAMEALNREQESARLQQRERETLEEERQALTLRLEAEQQRCCVLQEERDAARAGQLSEHRELETLRAALEEERQTWAQQEHQLKEHYQALQEESQAQLEREKEKSQREAQAAWETQHQLALVQSEVRRLEGELDTARRERDALQLEMSLVQARYESQRIQLESELAVQLEQRVTERLAQAQESSLRQAASLREHHRKQLQDLSGQHQQELASQLAQFKVEMAEREERQQQVAEDYELRLAREQARVCELQSGNQQLEEQRVELVERLQAMLQAHWDEANQLLSTTLPPPNPPAPPAGPSSPGPQEPEKEERRVWTMPPMAVALKPVLQQSREARDELPGAPPVLCSSSSDLSLLLGPSFQSQHSFQPLEPKPDLTSSTAGAFSALGAFHPDHRAERPFPEEDPGPDGEGLLKQGLPPAQLEGLKNFLHQLLETVPQNNENPSVDLLPPKSGPLTVPSWEEAPQVPRIPPPVHKTKVPLAMASSLFRVPEPPSSHAQGSGPSSGSPERGGDGLTFPRQLMEVSQLLRLYQARGWGALPAEDLLLYLKRLEHSGTDGRGDNVPRRNTDSRLGEIPRKEIPSQAVPRRLATAPKTEKPPARKKSGHPAPSSMRSRGGVWR
B3: Flag-CNTRB^180-903aa-S781D (domain or fragment, UniProt Q8N137-1 180-903)
chain: B2 chain with A602D
B4: 35S-methionine-labeled CNTRB-S781A, full length (protein, UniProt Q8N137-1 1-903)
chain: B1 chain with S781A
modifications: 35S-methionine-labeled
B5: 35S-methionine-labeled CNTRB-S781D, full length (protein, UniProt Q8N137-1 1-903)
chain: B1 chain with S781D
modifications: 35S-methionine-labeled
B6: Flag-CNTRB^180-903aa (domain or fragment, UniProt Q8N137-1 180-903)
chain: B2 chain with A602S
B7: 35S-methionine-labeled CNTRB-ARVA, full length (protein, UniProt Q8N137-1 1-903)
chain: B1 chain with F771A, P774A
modifications: 35S-methionine-labeled

Tests used:
[1] = molecular target: T1, GST-R3A (glutathione S-transferase fused recombinant full-length PPP4R3A) (human) (UniProt Q6IN85); experiment: pull-down; GST-IVTT assay: GST-R3A or GST-R3B immobilized on glutathione beads (bait), 35S-methionine-labeled CNTRB from IVTT (prey); 50 mM HEPES pH 7.5, 150 mM NaCl, 2 mM MgCl2, 1 mM EGTA, 1 mM DTT, 0.1% Triton X-100, 0.5% BSA; 4 °C, 2 h; autoradiography; only the target purified
T1 sequence: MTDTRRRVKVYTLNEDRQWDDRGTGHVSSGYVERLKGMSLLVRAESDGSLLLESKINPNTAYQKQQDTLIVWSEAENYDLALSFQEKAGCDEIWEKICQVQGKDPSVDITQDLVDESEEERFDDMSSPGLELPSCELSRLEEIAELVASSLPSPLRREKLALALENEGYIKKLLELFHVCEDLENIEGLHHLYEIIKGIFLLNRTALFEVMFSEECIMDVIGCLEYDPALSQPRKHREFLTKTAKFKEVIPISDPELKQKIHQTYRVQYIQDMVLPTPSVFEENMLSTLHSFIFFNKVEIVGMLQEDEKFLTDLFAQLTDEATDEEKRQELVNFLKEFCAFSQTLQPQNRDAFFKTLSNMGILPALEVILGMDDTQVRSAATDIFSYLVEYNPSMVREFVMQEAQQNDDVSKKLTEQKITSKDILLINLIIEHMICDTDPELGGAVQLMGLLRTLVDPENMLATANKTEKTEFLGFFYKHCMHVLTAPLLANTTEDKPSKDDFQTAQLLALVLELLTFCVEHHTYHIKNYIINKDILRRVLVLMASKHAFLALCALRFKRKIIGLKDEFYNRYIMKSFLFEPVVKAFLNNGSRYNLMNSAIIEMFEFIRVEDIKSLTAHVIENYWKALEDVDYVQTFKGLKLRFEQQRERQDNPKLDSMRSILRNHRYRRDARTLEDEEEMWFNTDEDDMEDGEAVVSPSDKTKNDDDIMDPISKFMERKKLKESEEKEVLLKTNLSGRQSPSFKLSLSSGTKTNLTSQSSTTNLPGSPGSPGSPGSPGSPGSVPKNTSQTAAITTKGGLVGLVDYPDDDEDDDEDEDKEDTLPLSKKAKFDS

[2] = molecular target: T2, GST-R3B (glutathione S-transferase fused recombinant full-length PPP4R3B) (human) (UniProt Q5MIZ7); experiment: as above
T2 sequence: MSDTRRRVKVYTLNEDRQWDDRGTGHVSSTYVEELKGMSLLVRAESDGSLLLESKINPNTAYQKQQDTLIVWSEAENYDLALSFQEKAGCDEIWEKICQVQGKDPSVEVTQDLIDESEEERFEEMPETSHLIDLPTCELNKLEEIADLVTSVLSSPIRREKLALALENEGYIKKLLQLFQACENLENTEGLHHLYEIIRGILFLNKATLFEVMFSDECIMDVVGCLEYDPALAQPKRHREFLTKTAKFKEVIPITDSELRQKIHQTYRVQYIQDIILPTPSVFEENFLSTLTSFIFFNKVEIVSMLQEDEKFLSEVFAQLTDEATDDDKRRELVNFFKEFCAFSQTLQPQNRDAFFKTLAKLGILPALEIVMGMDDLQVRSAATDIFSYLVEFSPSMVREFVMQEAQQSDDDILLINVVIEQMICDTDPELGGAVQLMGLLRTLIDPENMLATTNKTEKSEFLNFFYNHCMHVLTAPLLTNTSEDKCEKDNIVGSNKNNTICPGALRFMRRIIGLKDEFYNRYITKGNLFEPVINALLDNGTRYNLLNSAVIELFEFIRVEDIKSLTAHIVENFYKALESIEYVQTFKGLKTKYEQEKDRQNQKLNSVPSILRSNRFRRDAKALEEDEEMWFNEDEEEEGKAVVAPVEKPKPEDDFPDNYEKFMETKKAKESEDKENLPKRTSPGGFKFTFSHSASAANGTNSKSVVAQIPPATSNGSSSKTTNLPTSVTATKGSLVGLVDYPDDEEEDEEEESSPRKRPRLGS

[3] = molecular target: T3, GFP-R3A (human) (UniProt Q6IN85); experiment: co-IP; GFP-trap magnetic agarose beads on cleared lysates of HEK293 cells co-transfected with GFP-R3A or GFP-R3B and Flag-CNTRB^180-903aa variants; 50 mM Tris pH 7.6, 50 mM NaCl, 0.1% NP-40; 90 min at 4 °C; immunoblot with anti-FlagM2 and anti-GFP
T3 sequence: T1 sequence

[4] = molecular target: T4, GFP-R3B (human) (UniProt Q5MIZ7); experiment: as above
T4 sequence: T2 sequence

| Binder | binding [1] | binding [2] | binding [3] | binding [4] |
| --- | --- | --- | --- | --- |
| B1 | binds | binds |  |  |
| B2 |  |  | binds | binds |
| B3 |  |  | binds | binds |
| B4 | binds | binds |  |  |
| B5 | binds | binds |  |  |
| B6 |  |  | binds | binds |
| B7 | no binding | no binding |  |  |
